Laboratory results from PMC11967829.
Results are given in words; binding and its absence hold for the method and conditions named. Binding seen in cells or lysates may run through a third protein. Some binding calls cover weakened binding; strength is not graded here.

Sequences of proteins named here, by UniProt entry; tags and fusion partners are left off. A change or cut given only in a name is not applied to a line headed by its entry. A line that says so, or that is headed by a name, gives the form on record, which may keep a tag or linker.
PKM1-Myc (pyruvate kinase M, isoform 1, wild type) (P14618, form named): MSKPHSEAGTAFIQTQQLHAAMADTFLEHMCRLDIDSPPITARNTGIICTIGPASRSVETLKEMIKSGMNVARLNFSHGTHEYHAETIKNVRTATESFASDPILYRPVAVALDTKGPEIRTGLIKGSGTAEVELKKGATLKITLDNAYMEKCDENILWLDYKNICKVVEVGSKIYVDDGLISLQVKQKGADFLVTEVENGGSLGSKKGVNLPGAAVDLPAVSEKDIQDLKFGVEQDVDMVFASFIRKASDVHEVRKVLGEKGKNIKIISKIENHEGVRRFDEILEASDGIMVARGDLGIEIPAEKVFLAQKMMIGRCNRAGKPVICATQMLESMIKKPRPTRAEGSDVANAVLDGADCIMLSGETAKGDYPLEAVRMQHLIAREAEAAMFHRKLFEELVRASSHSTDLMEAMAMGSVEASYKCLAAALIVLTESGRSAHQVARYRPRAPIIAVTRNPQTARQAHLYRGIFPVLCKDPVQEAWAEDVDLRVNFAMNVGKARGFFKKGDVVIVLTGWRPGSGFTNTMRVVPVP
UniProt P09874: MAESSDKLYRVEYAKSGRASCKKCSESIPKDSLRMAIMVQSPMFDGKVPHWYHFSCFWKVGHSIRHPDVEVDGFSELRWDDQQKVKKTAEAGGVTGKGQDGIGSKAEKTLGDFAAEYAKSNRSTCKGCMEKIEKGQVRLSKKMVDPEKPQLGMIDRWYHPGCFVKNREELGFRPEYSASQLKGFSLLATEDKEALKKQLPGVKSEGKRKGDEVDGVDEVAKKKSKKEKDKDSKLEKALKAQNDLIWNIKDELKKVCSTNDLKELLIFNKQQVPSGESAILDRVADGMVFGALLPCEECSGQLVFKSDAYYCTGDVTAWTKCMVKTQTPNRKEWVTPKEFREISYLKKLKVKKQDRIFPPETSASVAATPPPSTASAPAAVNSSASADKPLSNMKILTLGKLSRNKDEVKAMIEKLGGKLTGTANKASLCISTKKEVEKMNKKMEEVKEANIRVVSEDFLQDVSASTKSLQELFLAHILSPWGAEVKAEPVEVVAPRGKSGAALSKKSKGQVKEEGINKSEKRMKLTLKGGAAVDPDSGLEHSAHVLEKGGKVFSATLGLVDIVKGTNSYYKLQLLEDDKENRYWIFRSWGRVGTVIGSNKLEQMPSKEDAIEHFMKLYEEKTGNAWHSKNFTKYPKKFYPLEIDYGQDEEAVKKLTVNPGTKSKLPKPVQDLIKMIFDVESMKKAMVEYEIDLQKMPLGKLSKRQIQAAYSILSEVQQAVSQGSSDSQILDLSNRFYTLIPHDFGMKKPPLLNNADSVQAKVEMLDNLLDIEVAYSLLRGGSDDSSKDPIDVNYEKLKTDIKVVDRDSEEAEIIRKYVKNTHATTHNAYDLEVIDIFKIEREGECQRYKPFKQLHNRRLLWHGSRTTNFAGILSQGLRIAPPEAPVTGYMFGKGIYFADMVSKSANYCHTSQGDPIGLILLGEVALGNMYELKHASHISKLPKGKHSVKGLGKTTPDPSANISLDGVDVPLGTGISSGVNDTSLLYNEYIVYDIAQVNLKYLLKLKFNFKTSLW

Biological target: PKM1-Myc (pyruvate kinase M, isoform 1, wild type) (UniProt P14618)
Assay: co-IP; PKM1 with PARP1 (Figure 5D); cells not told

**Q.** Which binding does the source give for “PARP1 (in cells, co-IP) (from UniProt P09874 1-1014)” here?
**A.** binds
